Measured values taken from the supplement of paper PMC7826260.
Some of the results follow. The data describe in vitro nicking of single-stranded DNA by Rep domains (3 µM enzyme, 1 h, 37 °C); shown is the middle of each 90-letter strand. Values are log2 of uncut reads against the no-enzyme pool; strong cutting gives strongly negative numbers. There is no active / inactive call. Because reads are shares of a total, they shift together, so uncut sequences can rise above 0 when many others are cut.

Assays:
Experiment in all cases: uncleaved DNA left, log2 of reads against the no-enzyme library (log2 ratio); higher = less cleavage (more negative = more Rep cleavage of the k-mer); sequences stand for … in CTCGTCCG…ACCGGAGA
[1] = test system: T1, Rep nickase domain of Muscovy duck circovirus
T1 sequence (residues 1-111 of Rep, tag left off): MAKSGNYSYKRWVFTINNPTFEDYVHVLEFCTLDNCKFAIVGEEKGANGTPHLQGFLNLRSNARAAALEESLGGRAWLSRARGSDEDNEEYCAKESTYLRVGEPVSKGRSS
Method: (§1)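 A pool of 90-nt single-stranded DNAs with seven random bases just before the constant AC of the nick site (name = the seven bases) was cut by 3 µM recombinant His6-SUMO-tagged Rep nickase domain (300 nM DNA, 50 mM HEPES pH 8.0, 50 mM NaCl, 1 mM MnCl2, 1 h, 37 °C, three replicates). Uncut DNA was amplified and sequenced.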

[2] = test system: T2, Rep nickase domain of banana bunchy top virus
T2 sequence (residues 1-94 of Rep, tag left off): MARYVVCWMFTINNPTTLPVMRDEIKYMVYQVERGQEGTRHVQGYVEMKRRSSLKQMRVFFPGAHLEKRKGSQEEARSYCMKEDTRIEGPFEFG
Method: as §1

[3] = test system: T3, Rep nickase domain of cabbage leaf curl virus
T3 sequence (residues 1-116 of Rep, tag left off): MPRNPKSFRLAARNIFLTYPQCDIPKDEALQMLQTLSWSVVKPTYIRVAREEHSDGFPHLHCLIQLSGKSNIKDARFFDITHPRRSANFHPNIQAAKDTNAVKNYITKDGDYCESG
Method: as §1

[4] = test system: T4, Rep nickase domain of chickpea chlorotic dwarf virus
T4 sequence (residues 1-124 of Rep, tag left off): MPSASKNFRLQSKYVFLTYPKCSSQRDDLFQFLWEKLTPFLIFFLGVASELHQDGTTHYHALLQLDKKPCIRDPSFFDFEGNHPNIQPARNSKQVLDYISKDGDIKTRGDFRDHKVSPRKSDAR
Method: as §1

[5] = test system: T5, Rep nickase domain of faba bean necrotic yellows virus
T5 sequence (residues 1-98 of Rep, tag left off): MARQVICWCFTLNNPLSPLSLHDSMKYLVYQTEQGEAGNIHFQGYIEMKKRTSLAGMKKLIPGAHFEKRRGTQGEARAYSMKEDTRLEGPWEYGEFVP
Method: as §1

[6] = test system: T6, Rep nickase domain of maize striate mosaic virus
T6 sequence (residues 1-117 of Rep, tag left off): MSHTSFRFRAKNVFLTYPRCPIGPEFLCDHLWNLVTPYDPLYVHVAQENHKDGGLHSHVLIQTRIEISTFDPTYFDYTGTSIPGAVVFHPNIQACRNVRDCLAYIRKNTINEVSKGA
Method: as §1

[7] = test system: T7, Rep nickase domain of porcine circovirus 2
T7 sequence (residues 2-116 of Rep, tag left off): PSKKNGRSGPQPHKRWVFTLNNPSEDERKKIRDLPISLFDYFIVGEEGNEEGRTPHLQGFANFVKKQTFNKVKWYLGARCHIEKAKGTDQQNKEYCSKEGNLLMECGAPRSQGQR
Method: as §1

[8] = test system: T8, Rep nickase domain of tomato golden mosaic virus
T8 sequence (residues 1-124 of Rep, tag left off): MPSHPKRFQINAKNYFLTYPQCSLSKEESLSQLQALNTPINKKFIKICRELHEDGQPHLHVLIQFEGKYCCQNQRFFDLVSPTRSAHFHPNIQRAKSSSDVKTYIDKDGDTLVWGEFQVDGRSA
Method: as §1

[9] = test system: T9, Rep nickase domain of tomato yellow leaf curl virus
T9 sequence (residues 1-136 of Rep, tag left off): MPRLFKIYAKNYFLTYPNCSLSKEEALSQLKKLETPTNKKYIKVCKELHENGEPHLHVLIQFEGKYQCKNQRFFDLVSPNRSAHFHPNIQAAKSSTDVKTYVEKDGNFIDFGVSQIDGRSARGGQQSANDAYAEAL
Method: as §1

[10] = test system: T10, Rep nickase domain of wheat dwarf virus
T10 sequence (residues 1-137 of Rep, tag left off): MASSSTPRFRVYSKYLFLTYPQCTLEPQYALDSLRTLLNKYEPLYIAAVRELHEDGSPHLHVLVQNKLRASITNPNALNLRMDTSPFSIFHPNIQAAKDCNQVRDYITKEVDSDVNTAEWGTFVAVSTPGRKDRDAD
Method: as §1

Sequence	uncleaved DNA left (log2) [1]	uncleaved DNA left (log2) [2]	uncleaved DNA left (log2) [3]	uncleaved DNA left (log2) [4]	uncleaved DNA left (log2) [5]	uncleaved DNA left (log2) [6]	uncleaved DNA left (log2) [7]	uncleaved DNA left (log2) [8]	uncleaved DNA left (log2) [9]	uncleaved DNA left (log2) [10]
TGCCTTA	0.0247	-0.0789	0.00434	-0.637	0.0369	-0.139	-0.169	-0.00168	-0.0861	-0.0569
GGTCATC	-0.0882	0.114	0.736	1.72	-0.00953	2.14	0.193	-0.0443	0.0995	0.121
GCATTGT	-0.194	-0.141	-0.585	-0.559	-0.16	-1.07	-0.143	-0.104	-0.0734	-0.079
TAATCTC	-1.47	-0.0542	-4.1	-3.37	-0.0268	-3.28	-1.49	-4.12	-0.438	-3.89
CCTGGGT	-0.0207	0.00816	0.114	0.658	0.0034	0.651	-0.074	0.00771	-0.0597	-0.0819
TGACACC	-0.0524	-0.0446	0.237	0.484	-0.0819	0.732	-0.127	-0.0769	-0.0326	-0.0306
GAATGAT	-0.476	0.0487	-2.87	-2.22	0.0831	-1.52	-2.87	-2.2	-0.0391	-2.48
AGAGCAC	0.0509	0.132	0.195	0.262	0.111	0.377	0.0109	0.0584	0.121	0.165
ATAAAAT	-0.0203	0.0416	0.161	-0.716	-0.0444	-0.342	0.0321	0.174	0.0272	0.117
CCGTTTG	-0.000229	-0.105	-0.493	-0.609	-0.247	-0.827	0.00947	0.00914	-0.0562	-0.189
GGTTGGC	-0.0799	0.0234	0.539	1.16	-0.0504	1.47	0.0905	0.0299	0.0233	-0.0123
ATGATAC	-0.0367	-0.0302	-0.185	-0.585	0.0362	-0.807	-0.0586	-0.0284	-0.0389	-0.099
CACTGCC	-0.125	-0.145	-0.392	-0.33	-0.0779	-0.469	-0.593	-0.116	-0.0716	-0.152
TGTAACA	-0.149	-0.129	0.0509	-0.634	-0.0797	0.968	-0.151	-0.0034	-0.0151	0.0402
TCTTACG	0.0968	0.0332	-0.861	-1.15	0.0396	-1.2	-0.0793	-0.000335	0.0703	-0.0311
GCCCTAT	-0.0677	-0.0259	0.351	0.221	0.156	0.441	0.108	0.17	0.181	0.0673

Sequence	uncleaved DNA left (log2) [1]	uncleaved DNA left (log2) [2]	uncleaved DNA left (log2) [3]	uncleaved DNA left (log2) [4]	uncleaved DNA left (log2) [5]	uncleaved DNA left (log2) [6]	uncleaved DNA left (log2) [7]	uncleaved DNA left (log2) [8]	uncleaved DNA left (log2) [9]	uncleaved DNA left (log2) [10]
TTACGAG	-0.00481	0.0452	0.456	0.252	0.00392	0.47	0.132	-0.0602	0.0259	0.0616
CACTCTG	-0.00481	-0.277	-0.192	-0.133	-0.0941	-0.3	-0.198	-0.0522	-0.0761	-0.163
CTCTAGC	-0.092	-0.0448	-0.438	-0.413	0.0673	-0.844	0.0721	-0.093	-0.0145	0.0165
ATCGCCA	-0.0247	-0.111	-0.0559	-0.584	0.0888	-0.404	0.0344	0.0345	0.0505	0.0776
CAAAAGT	-0.0608	0.0156	-0.901	-2.63	0.038	-1.09	-0.317	-0.063	0.0189	-0.281
CAGGTAT	0.222	0.0757	0.205	1.44	0.211	1.84	0.192	0.131	-0.0628	0.0867
TTCTTAA	-0.0461	-0.00439	0.0788	-0.079	-0.0508	0.0505	-0.11	-0.0674	-0.162	-0.011
AATGCAG	0.00249	-0.0583	-0.696	-0.229	0.0271	-1.17	0.191	0.0133	0.0121	-0.0722
TACTGTC	-0.0388	-0.0274	-0.113	-0.116	-0.0409	0.153	-0.358	-0.112	-0.122	-0.0164
TCCACGC	-0.161	-0.148	-0.0226	-0.346	-0.0813	-0.523	-0.0373	-0.18	-0.131	-0.163
AGTAGTA	-0.103	-0.0762	-0.0595	-0.616	-0.136	-0.251	-1.22	-0.0918	-0.0145	-0.0118
GGGCTAA	-0.00298	0.102	0.756	1.83	-0.0891	2.04	0.164	-0.0339	-0.0541	0.0561
GTGGGTC	-0.0565	-0.0468	0.248	0.88	-0.138	1.86	-0.00384	-0.0232	-0.0521	-0.0421
TCTTCGT	-0.188	-0.176	-0.381	-1.02	-0.136	-1.1	-0.297	-0.224	-0.0779	-0.153
AAGTTGG	0.0118	-0.0913	-0.401	-0.586	0.0445	-1.06	-0.0917	0.0104	0.0628	-0.0824
